Test results reported in a collection of fitness landscapes (doi:10.1038/s41467-024-54723-y).
The full ranking holds about 18,000 sequences; the median of “TetR repression strength (sort-seq, GFP reporter)” is about 0.23, and the highest 2% start at about 0.68. The list shows a part of the results.

Biological target: TetR (class B, Tn10) (UniProt P04483)
Assay: TetR repression strength (sort-seq, GFP reporter) (relative to tetO2 = 1); higher = stronger repression
Details: E. coli
Outline: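 In LB with 50 µg/mL chloramphenicol, E. coli SIG10-MAX holding a low-copy library with eight randomized operator positions between a constitutive promoter and sfGFP, plus constitutive TetR, grew for 5 h at 37 °C. FACS then sorted 10^6 cells into 13 fluorescence bins for Illumina sequencing of each bin. Repression strength equals the top bin index plus one less the read-weighted mean bin, normalized to the unaltered operator. Values from three independent transformations were averaged when reads were ≥30 in every replicate and the CV was ≤0.5.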

Sequence of UniProt P04483 (P04483 whole entry): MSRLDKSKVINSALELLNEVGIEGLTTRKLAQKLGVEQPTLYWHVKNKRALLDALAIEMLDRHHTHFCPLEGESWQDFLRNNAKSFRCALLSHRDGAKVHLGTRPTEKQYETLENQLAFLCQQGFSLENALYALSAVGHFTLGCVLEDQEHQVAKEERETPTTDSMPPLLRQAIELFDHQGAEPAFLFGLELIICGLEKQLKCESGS

| Sequence | TetR repression strength |
| --- | --- |
| TCCCCTTAAGTGAGAGAGA | 0.251 |
| TCCCATTTAGTGCGAGAGA | 0.279 |
| TCCCGGCGAGTGGGAGAGA | 0.252 |
| TCCCGGAAAGTAGCAGAGA | 0.0718 |
| TCCCGGGGAGTTCGGGAGA | 0.307 |
| TCCCGCCTAGTGGCGGAGA | 0.306 |
| TCCCAACAAGTTCGTGAGA | 0.33 |
| TCCCGTGGAGTGGACGAGA | 0.105 |
| TCCCAGATAGTAAACGAGA | 0.404 |
| TCCCGTGAAGTCAGAGAGA | 0.266 |
| TCCCGTCGAGTGCATGAGA | 0.196 |
| TCCCAGCAAGTTGTGGAGA | 0.222 |
| TCCCGGCAAGTCAGCGAGA | 0.0946 |
| TCCCGATAAGTACGTGAGA | 0.107 |
| TCCCGTGCAGTGCCCGAGA | 0.361 |
| TCCCCGTGAGTGGCGGAGA | 0.0581 |
| TCCCACGGAGTTGGCGAGA | 0.123 |
| TCCCCCTGAGTTATCGAGA | 0.168 |
| TCCCTTCGAGTCGTTGAGA | 0.352 |
| TCCCCGTGAGTGTATGAGA | 0.189 |
| TCCCGCGGAGTTTGAGAGA | 0.245 |
| TCCCTTGGAGTATTCGAGA | 0.162 |
| TCCCTTTGAGTAAAAGAGA | 0.232 |
| TCCCGTTTAGTGTTCGAGA | 0.114 |
| TCCCGGGTAGTAAGCGAGA | 0.403 |
| TCCCTAGAAGTTATCGAGA | 0.275 |

| Sequence | TetR repression strength |
| --- | --- |
| TCCCAGCTAGTGAAGGAGA | 0.64 |
| TCCCTGGGAGTAGACGAGA | 0.144 |
| TCCCGCGGAGTTTCCGAGA | 0.449 |
| TCCCTAAGAGTGAAGGAGA | 0.434 |
| TCCCGCGCAGTGAGGGAGA | 0.216 |
| TCCCGGCCAGTCTGTGAGA | 0.102 |
| TCCCTTGGAGTCAATGAGA | 0.337 |
| TCCCTGCAAGTACGTGAGA | 0.236 |
| TCCCTATCAGTGAACGAGA | 0.862 |
| TCCCATCAAGTAAGTGAGA | 0.242 |
| TCCCATAGAGTGATAGAGA | 0.438 |
| TCCCTAAGAGTCGGCGAGA | 0.215 |
| TCCCAGATAGTACGAGAGA | 0.165 |
| TCCCTTATAGTGCCTGAGA | 0.162 |
| TCCCGGGGAGTCCAAGAGA | 0.195 |
| TCCCTGCTAGTCTGCGAGA | 0.116 |
| TCCCGCGGAGTCACGGAGA | 0.396 |
| TCCCGGAAAGTGGTTGAGA | 0.142 |
| TCCCGCGGAGTCGGTGAGA | 0.186 |
| TCCCGGGTAGTGATTGAGA | 0.312 |
| TCCCGATCAGTGACCGAGA | 0.715 |
| TCCCAGTGAGTGCTCGAGA | 0.0229 |
| TCCCTCGGAGTGGCCGAGA | 0.134 |
| TCCCTTGAAGTGTAGGAGA | 0.0837 |
| TCCCGGCTAGTCACTGAGA | 0.256 |
| TCCCGGCGAGTCGTAGAGA | 0.0801 |

| Sequence | TetR repression strength |
| --- | --- |
| TCCCCTTTAGTGAAGGAGA | 0.0558 |
| TCCCGGACAGTAAGAGAGA | 0.322 |
| TCCCGCTCAGTAGGGGAGA | 0.2 |
| TCCCGGCAAGTGACGGAGA | 0.22 |
| TCCCTGTCAGTTGGGGAGA | 0.324 |
| TCCCGGGGAGTCGCCGAGA | 0.573 |
| TCCCAATGAGTCAATGAGA | 0.207 |
| TCCCATTAAGTACGCGAGA | 0.0452 |
| TCCCTTGAAGTTTGGGAGA | 0.216 |
| TCCCGTCAAGTTGGGGAGA | 0.236 |
| TCCCAATTAGTCGAGGAGA | 0.509 |
| TCCCATTCAGTGGGGGAGA | 0.294 |
| TCCCTCATAGTGATGGAGA | 0.22 |
| TCCCTTAGAGTTTCTGAGA | 0.295 |
| TCCCCGCGAGTCAACGAGA | 0.495 |
| TCCCGGTGAGTTCGGGAGA | 0.181 |
| TCCCGCGTAGTACTTGAGA | 0.215 |
| TCCCGGTCAGTGCTGGAGA | 0.378 |
| TCCCAGCCAGTGTTAGAGA | 0.518 |
| TCCCGTAGAGTTTAAGAGA | 0.23 |
| TCCCATTGAGTAATGGAGA | 0.191 |
| TCCCGTAGAGTGGTTGAGA | 0.284 |
| TCCCTACAAGTAGCGGAGA | 0.27 |
| TCCCAGCGAGTGCCGGAGA | 0.141 |
| TCCCAATTAGTAGCCGAGA | 0.518 |
| TCCCATTCAGTATCTGAGA | 0.252 |

| Sequence | TetR repression strength |
| --- | --- |
| TCCCAATGAGTAGTAGAGA | 0.0915 |
| TCCCATGGAGTGTGGGAGA | 0.244 |
| TCCCTACCAGTAATCGAGA | 0.278 |
| TCCCCAATAGTCCCGGAGA | 0.112 |
| TCCCCCAGAGTGAGGGAGA | 0.185 |
| TCCCTGTTAGTAATTGAGA | 0.123 |
| TCCCTGAAAGTGAGAGAGA | 0.16 |
| TCCCGCTTAGTGCCCGAGA | 0.22 |
| TCCCCCTGAGTACAGGAGA | 0.0444 |
| TCCCAACAAGTGAAGGAGA | 0.0518 |
| TCCCTCCCAGTGTTAGAGA | 0.313 |
| TCCCGTATAGTCTGCGAGA | 0.361 |
| TCCCCAAGAGTCGGGGAGA | 0.171 |
| TCCCTGGGAGTTGACGAGA | 0.013 |
| TCCCGGGGAGTGAGTGAGA | 0.153 |
| TCCCTGGAAGTTTGAGAGA | 0.082 |
| TCCCGTCTAGTGAGGGAGA | 0.25 |
| TCCCTGCAAGTGTCTGAGA | 0.251 |
| TCCCCGGTAGTTTCGGAGA | 0.239 |
| TCCCAGCGAGTCCGGGAGA | 0.0826 |
| TCCCTGAGAGTGATCGAGA | 0.0416 |
| TCCCCGAGAGTGATGGAGA | 0.391 |
| TCCCTGGGAGTCGCGGAGA | 0.205 |
| TCCCCATGAGTATTCGAGA | 0.353 |
| TCCCATGCAGTTATGGAGA | 0.15 |
| TCCCCGATAGTCGTGGAGA | 0.177 |

| Sequence | TetR repression strength |
| --- | --- |
| TCCCCAGAAGTGCGAGAGA | 0.522 |
| TCCCGTGGAGTCCGCGAGA | 0.174 |
| TCCCGTGAAGTAGGAGAGA | 0.154 |
| TCCCTATGAGTGCGCGAGA | 0.253 |
| TCCCACATAGTCAATGAGA | 0.473 |
| TCCCTAGAAGTTTATGAGA | 0.249 |
| TCCCGGCTAGTGTCGGAGA | 0.184 |
| TCCCACTGAGTTAACGAGA | 0.175 |
| TCCCACTGAGTACGTGAGA | 0.193 |
| TCCCATGGAGTTGTGGAGA | 0.203 |
| TCCCTGAGAGTCACCGAGA | 0.346 |
| TCCCACGCAGTGAGTGAGA | 0.155 |
| TCCCTACTAGTTGTAGAGA | 0.303 |
| TCCCTGCGAGTTATAGAGA | 0.346 |
| TCCCCGAGAGTACTAGAGA | 0.268 |
| TCCCCGCTAGTGTTTGAGA | 0.375 |
| TCCCTAAGAGTGGGAGAGA | 0.174 |
| TCCCTGCGAGTCTGCGAGA | 0.339 |
| TCCCCTCTAGTGTCAGAGA | 0.326 |
| TCCCATCGAGTGTGGGAGA | 0.468 |
| TCCCATTCAGTGATCGAGA | 0.731 |
| TCCCAACGAGTAATGGAGA | 0.395 |
| TCCCGGAGAGTACCTGAGA | 0.0134 |
| TCCCATGCAGTATTTGAGA | 0.254 |
| TCCCATGAAGTGGTTGAGA | 0.502 |
| TCCCAGAGAGTCTCTGAGA | 0.311 |
